The supplement of paper PMC11417369
The other results are listed elsewhere or left out.

Test system: PfAP2-HC AP2 domain (GST-tagged)
Experiment: gcPBM binding intensity (ln(normalized median fluorescence intensity)); higher = stronger DNA binding
Method in brief: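 The binding buffer was 1× PBS containing 1% milk, 0.2 mg/ml BSA, 0.5% salmon testes DNA and 0.03% Triton X-100. In it, GST-tagged P. falciparum DNA-binding domains expressed in E. coli were applied for 1 h to an Agilent 4 × 180k array of primer-extended double-stranded 36-bp intergenic genomic probes plus negative controls. Binding intensity, read with Alexa488 anti-GST antibody and a 488 nm scan, is the highest Masliner-normalised natural-log median intensity across replicate spots of either probe orientation.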

Sequence | gcPBM binding intensity (ln)
TTTATTAAATAAAGCACACACAACAACTTTTCACAA [CACACA_site4132] | 10.1
ATAACGTAAACAATGTGGACACATACATAAATATAT [XGTACX_site707] | 9.94
TTACAAAACCGATGTTGTACATTCAATAGATAATGT [XGTACX_site3806] | 9.58
GTCATCATAATCTATTGTACAAAAATTTATACAGAT [XGTACX_site1059] | 9.63
TACATTAAACGAATAGTGCAAGAAGTATTCGTATAA [GTGCAC_site9939] | 10.1
TATAAAAATAAGTATACACACAAAATGCGTAACTTT [CACACA_site1295] | 9.71
ATAAATACATTAAAATGTACATAAAAATATTACTGG [XGTACX_site1484] | 9.73
TATAACAAGTAATGGTGTACATTATATTATGTAATA [XGTACX_site2761] | 9.73
CATATGCGTCTTGCCTTGCACACTTTTATGAAAAAA [CACACA_site2055] | 9.75
TAATACTTAAAATGTTGTACATAATAATTTTATATT [XGTACX_site5403] | 9.51
TATATATATATATATACATGCATTTCTCATGTACAT [TGCATGCA_site621] | 9.82
TTTTATATCTACCTTTGTACATATTTATTTTTTTTA [XGTACX_site7872] | 9.94
TTCATAAAAAATGTAGTGCATTGAATAAAATTACAT [GTGCAC_site9393] | 9.59
TTAATTTTGGTAAATGCATGTAATTAAAAATAAAAA [TGCATGCA_site234] | 9.45
ATATTGAAATTAAAAAAATATATGAACAAATGATGA [CACACA_negctrl_site602] | 9.72
TAAATTTTTTTTTTTTGTACACAAAAATATAATATT [XGTACX_site8151] | 9.5
TTATGTAGTATAATGAGTACTAAATATAGATATGTT [XGTACX_site6335] | 9.7
AATATTATAAATGATACACACTTAAAATACAGACAC [CACACA_site8868] | 10.3
AATTACTTAAATTATTGTACCCTAATGTTAATTTCA [XGTACX_site825] | 9.59
ATACATTCAAAATATACACACATATATCTATAATAT [CACACA_site6576] | 9.98
TTTCTTTAGTAGAATGTAAAAAATATAATCTTCTTA [TGCATGCA_negctrl_site298] | 9.23
TTTATAAAAAGCATAACACACACATGTCAATATATA [CACACA_site8286] | 10.1

Sequence | gcPBM binding intensity (ln)
AACATACGACAATACGCACACATATAAGTACATATT [CACACA_site8584] | 10.5
TTCAATTATATTCTTTGTACGAATCTTCTATAAATT [XGTACX_site4346] | 9.71
GCTTATGCTCAATATTGTACTTTTTTTATTTATTCA [XGTACX_site8863] | 9.81
TACTTCTTTTTTATTTATTTTACTTTTTATTCTGTA [CACACA_negctrl_site772] | 9.82
ATTTAATTTTTTTTTAAACACACATTTTTTTATTTA [CACACA_site8880] | 9.81
ATATATATATATATATGTACATATACACATGTGTGC [XGTACX_site168] | 10.1
AAATAAATAATAAATAAATAAATAAAATACCAAATA [GTGCAC_negctrl_site620] | 9.84
TATAAATATGTGTATACACACCTGATAAAGGTATAT [CACACA_site7283] | 10
AAAATTATTAAATATGTACACACGTACATTTTATAA [CACACA_site8750] | 9.5
CACGCATACAGACACACACACACACCCATATATATA [CACACA_site636] | 10.6
TTAAAAATAAAACAAAGTACTCAAGTTATTGTCTTT [XGTACX_site1584] | 9.53
TATGATATGTATGGAAGTACGAAGAGGGATGATCAG [XGTACX_site1677] | 9.66
GTGAATCCTAAGTGTACACATCTTACAGATATATAT [CACACA_site4836] | 9.85
TGAAATAAAATTTGTACACACATATATATATATATA [CACACA_site586] | 9.95
ATTTTCAAATTAAAATGTACAAATGAAAGAAAGGGA [XGTACX_site7048] | 9.75
GCACAAATCATCAAATGTACAGAAAATGCTGTCAAT [XGTACX_site5037] | 9.52
TTCCTTCATTGGAAAAGTACACAATATTGTCGTTTA [XGTACX_site8057] | 9.64
ATATAGGTATAATACACACACTAATATGTAACTGTA [CACACA_site7011] | 10.1
CGTAAATTTTTCTAAGTGCATGTTAATTTTTCAATT | 9.59
TAAATACCTATATGGCGTACTATTATCATAGTATAT [XGTACX_site5423] | 9.8
TATTTATTATGATACTCATATTATTCTATGATTAAA [GTGCAC_negctrl_site486] | 9.47
ACATTCTATACATACACACCCACACCCAAAAAAAAA [CACACA_site863] | 10

Sequence | gcPBM binding intensity (ln)
TATATATCAATATACACACACACATATTTATTTATA [CACACA_site6858] | 10.4
AAAAATATAATATAATGTACACATAAACAAAAAAAA [XGTACX_site3658] | 9.83
TTTCTTAAATATATGCGTACTCAAAATTGTTCTACA [XGTACX_site7995] | 9.26
AACAGACATACATACACACATACATACAGACATACA [CACACA_site1942] | 10.5
TAAAATAAAACAAACACACACACACCGACACAAAAA [CACACA_site5993] | 10.8
ATATATATATATTTCGCACACATAATCTTATTAAAT [CACACA_site2579] | 9.78
ATGTATCATAAGAACTGTGTGGTTACAGACACGAAC [GTGCAC_negctrl_site416] | 9.98
TACTATGCCCCATATAAACACACAAATAAAAAGAAT [CACACA_site8857] | 9.85
TATAAACCTACATACACACATACAATAAGTAAAATG [CACACA_site1921] | 10
AACTATATATATAATTCACACATGTTTTAAAATTTT [CACACA_site4971] | 9.82
TATAATTAATTAGAAGTGCATTAGGTAACAACTGTC [GTGCAC_site9746] | 9.68
CTATGCATTTATAGTGCATGTAAAATATAAGATAAT [TGCATGCA_site71] | 9.58
AACGCAGTTTAATATACACACCAAAAAAAAAAAAAG [CACACA_site5643] | 9.66
TTTCCTTTTTTAATATGTACACATATTATTATATCT [XGTACX_site3079] | 9.85
ATATATTCTTATTGCTGTACACATATTTTCTAAAAA [XGTACX_site4851] | 9.69
TGTTACATATTATAAATACATTAACTATTATATGTA [CACACA_negctrl_site1735] | 9.49
TATATATATATATATTGTACATATTGTATATATTGT [XGTACX_site3212] | 9.6
TTTATAAAAAATTTTTTTTTTTTTTTTTAAATATAT [CACACA_negctrl_site146] | 9.29
TATATATATATTTATACACACATTAGTGTATCCATG [CACACA_site5609] | 10.3
TTATATTAAACAAACACACACATATATATATATATA [CACACA_site2382] | 9.88
TTAACAAATGGACACACACACACACCCAAAAAAAAA [CACACA_site4443] | 10.7
TTATTTTTTCAAGAATGTACTTACGAATTGTCGTAT [XGTACX_site1363] | 9.51

Sequence | gcPBM binding intensity (ln)
ATCAATACACATATATGTACATATAATAATTATCTT [XGTACX_site662] | 9.78
CAAAAAAACAAACACACACACACACCCATATATATA [CACACA_site3653] | 11.5
TAATTACCATATGGTACACACATATATATATGTATA [CACACA_site3487] | 9.93
TTTTTTTTTTGTAGTTGTACGAACTAGCTATTTATG [XGTACX_site692] | 9.62
TTGGCATACAGACACACACACACACGCCCACATATA [CACACA_site6425] | 10.7
ATATATATATATATATGTACATATATATATTTTTTA [XGTACX_site5987] | 10.1
TTTTTTTTTTATTCTACACACATATGTTTTTATATG [CACACA_site182] | 10
TATATATATATATGTTGTACTTTTAATTTAAATGTA [XGTACX_site4239] | 9.43
TGTTATTAAAACGTGACACACAATATATATATATAT [CACACA_site3539] | 9.73
TTTTTTTTTTTTTTTTGTACACATAGTAAAAATTAA [XGTACX_site2410] | 9.19
TTTTTTTTTAAGCAAAGGAAATCAAAATAAAAATAT [CACACA_negctrl_site719] | 9.3
TTATAAATTATATATATGACCAATAATTGTGAGCAT [CACACA_negctrl_site725] | 9.53
AAATAGGGAATTTATGCACACAGTTAAGGGGGAAAA [CACACA_site2071] | 10.1
ATATATTATTATATATGTACTTATTTATAAATGATT [XGTACX_site7597] | 9.47
AATAAATTAATAAGGTGTACATAAATAATTTATATA [XGTACX_site8278] | 9.72
TAAATATAAACACAAACACACACATATATATATATA [CACACA_site7978] | 10.3
ATTCAAAAGGTTTAATGTACGTGATGTTTCACAAAT [XGTACX_site784] | 9.55
CATACTCTACATAGATGTACTCATTTAAAAAAAAAA [XGTACX_site6945] | 9.38
ATTTTTTTTTTTTTTTTTTTTTTTTTCTCTCTCACT [CACACA_negctrl_site1046] | 9.22
ATAGAAGGACATATAACACACATATATTATAAGTAT [CACACA_site5461] | 10
TGTCGACATGTAGGTAGTACTATTAAAAATAATGAT [XGTACX_site3849] | 9.6
AAATATATATATATAATACACACTAAAGTAACATAA [CACACA_site2870] | 10
